From the GPR68 mutational scans of Howard et al. (2025)
Scores whose standard error is large were omitted. The source holds two more conditions with little spread; they are left out. Read del as a deletion of the residues named and ins as an insertion between two positions. For part of these data: How much ogerin was present is not stated here.

B1: GPR68, Q15743 (parent)
chain: MGNITADNSSMSCTIDHTIHQTLAPVVYVTVLVVGFPANCLSLYFGYLQIKARNELGVYLCNLTVADLFYICSLPFWLQYVLQHDNWSHGDLSCQVCGILLYENIYISVGFLCCISVDRYLAVAHPFRFHQFRTLKAAVGVSVVIWAKELLTSIYFLMHEEVIEDENQHRVCFEHYPIQAWQRAINYYRFLVGFLFPICLLLASYQGILRAVRRSHGTQKSRKDQIQRLVLSTVVIFLACFLPYHVLLLVRSVWEASCDFAKGVFNAYHFSLLLTSFNCVADPVLYCFVSETTHRDLARLRGACLAFLTCSRTGRAREAYPLGAPEASGKSGAQGEEPELLTKLHPAFQTPNSPGSGGFPTGRLA

How the values were obtained:
[1] = variants of: B1; assay: cAMP reporter score (Enrich2 score, wild type = 0); higher = more signal; HEK293T, FACS bins
[2] = variants of: B1; assay: surface expression score (Enrich2 score, wild type = 0); higher = more signal; HEK293T, FACS bins

| Variant | cAMP reporter score ([1]; pH 5.5) | cAMP reporter score ([1]; pH 6) | cAMP reporter score ([1]; pH 6, modulator: ogerin) | cAMP reporter score ([1]; pH 6.5, modulator: ogerin) | surface expression score [2] |
| --- | --- | --- | --- | --- | --- |
| R214_S215insGSG | -1.62 | -1.24 | -0.393 | -0.383 | 0.946 |
| S215_G217del | -1.4 | -0.608 | -1.36 | -1.36 | -0.502 |
| S215_H216insGS | -0.718 | -1.08 | -1.28 | -1.01 | 0.242 |
| MGNITADNSSMSCTIDHTIHQTLAPVVYVTVLVVGFPANCLSLYFGYLQIKARNELGVYLCNLTVADLFYICSLPFWLQYVLQHDNWSHGDLSCQVCGILLYENIYISVGFLCCISVDRYLAVAHPFRFHQFRTLKAAVGVSVVIWAKELLTSIYFLMHEEVIEDENQHRVCFEHYPIQAWQRAINYYRFLVGFLFPICLLLASYQGILRAVRRSAGTQKSRKDQIQRLVLSTVVIFLACFLPYHVLLLVRSVWEASCDFAKGVFNAYHFSLLLTSFNCVADPVLYCFVSETTHRDLARLRGACLAFLTCSRTGRAREAYPLGAPEASGKSGAQGEEPELLTKLHPAFQTPNSPGSGGFPTGRLA [H216A] | -0.153 | -0.221 | -0.257 | 0.382 | 0.747 |
| MGNITADNSSMSCTIDHTIHQTLAPVVYVTVLVVGFPANCLSLYFGYLQIKARNELGVYLCNLTVADLFYICSLPFWLQYVLQHDNWSHGDLSCQVCGILLYENIYISVGFLCCISVDRYLAVAHPFRFHQFRTLKAAVGVSVVIWAKELLTSIYFLMHEEVIEDENQHRVCFEHYPIQAWQRAINYYRFLVGFLFPICLLLASYQGILRAVRRSCGTQKSRKDQIQRLVLSTVVIFLACFLPYHVLLLVRSVWEASCDFAKGVFNAYHFSLLLTSFNCVADPVLYCFVSETTHRDLARLRGACLAFLTCSRTGRAREAYPLGAPEASGKSGAQGEEPELLTKLHPAFQTPNSPGSGGFPTGRLA [H216C] | 0.217 | -0.828 | -0.016 | -0.805 | 1.98 |
| MGNITADNSSMSCTIDHTIHQTLAPVVYVTVLVVGFPANCLSLYFGYLQIKARNELGVYLCNLTVADLFYICSLPFWLQYVLQHDNWSHGDLSCQVCGILLYENIYISVGFLCCISVDRYLAVAHPFRFHQFRTLKAAVGVSVVIWAKELLTSIYFLMHEEVIEDENQHRVCFEHYPIQAWQRAINYYRFLVGFLFPICLLLASYQGILRAVRRSDGTQKSRKDQIQRLVLSTVVIFLACFLPYHVLLLVRSVWEASCDFAKGVFNAYHFSLLLTSFNCVADPVLYCFVSETTHRDLARLRGACLAFLTCSRTGRAREAYPLGAPEASGKSGAQGEEPELLTKLHPAFQTPNSPGSGGFPTGRLA [H216D] | 1.46 | – | -0.64 | -0.177 | – |
| MGNITADNSSMSCTIDHTIHQTLAPVVYVTVLVVGFPANCLSLYFGYLQIKARNELGVYLCNLTVADLFYICSLPFWLQYVLQHDNWSHGDLSCQVCGILLYENIYISVGFLCCISVDRYLAVAHPFRFHQFRTLKAAVGVSVVIWAKELLTSIYFLMHEEVIEDENQHRVCFEHYPIQAWQRAINYYRFLVGFLFPICLLLASYQGILRAVRRSEGTQKSRKDQIQRLVLSTVVIFLACFLPYHVLLLVRSVWEASCDFAKGVFNAYHFSLLLTSFNCVADPVLYCFVSETTHRDLARLRGACLAFLTCSRTGRAREAYPLGAPEASGKSGAQGEEPELLTKLHPAFQTPNSPGSGGFPTGRLA [H216E] | 0.805 | -0.661 | 0.438 | -0.012 | 0.704 |
